These molecules were tested against human Cav2.2 (Homo sapiens, UniProt Q00975) (assay: In vitro assessment of calcium channel activity using FLIPR (Ca2+ influx in IMR32 cells)). Conditions: IMR32 cells endogenously expressing human Cav2.2; Calcium 4 dye, 60 minute pre-incubation, 2 μM nifedipine, depolarized with 80 mM KCl; average of at least two runs unless marked *.
Type: cell-based

Row | IC50 [nM] | Molecule
1 | > 30000 | O=C1CN(S(=O)(=O)c2ccc(C(F)(F)F)cc2)C[C@@H]2C[C@@H](Oc3cnc(C4CC4)cn3)CN12 [Example 221, (7R,8aS)-7-[(5-cyclopropylpyrazin-2-yl)oxy]-2-{[4-(trifluoromethyl)-phenyl]sulfonyl}hexahydropyrrolo[1,2-a]pyrazin-4(1H)-one]
2 | 1250 | O=C1C(Oc2cnc(C3CC3)cn2)C[C@@H]2CN(S(=O)(=O)c3cccc(C(F)(F)F)c3)CCN12 (stereo partly drawn) [Example 222, (8aR)-7-[(5-cyclopropylpyrazin-2-yl)oxy]-2-{[3-(trifluoromethyl)-phenyl]sulfonyl}hexahydropyrrolo[1,2-a]pyrazin-6(2H)-one]
3 | 127 | O=C1C(Cc2cccc(C(F)(F)F)c2)C[C@H]2CN(S(=O)(=O)c3cccc(C(F)(F)F)c3)CCN12 (stereo partly drawn) [Example 223, (8aS)-7-[3-(trifluoromethyl)benzyl]-2-{[3-(trifluoromethyl)phenyl]-sulfonyl}hexahydropyrrolo[1,2-a]pyrazin-6(2H)-one]
4 | 353 | O=C1C(Cc2cccc(C(F)(F)F)c2)C[C@H]2CN(S(=O)(=O)c3ccc(C(F)(F)F)cc3)CCN12 (stereo partly drawn) [Example 224, (8aS)-7-[3-(trifluoromethyl)benzyl]-2-{[4-(trifluoromethyl)phenyl]-sulfonyl}hexahydropyrrolo[1,2-a]pyrazin-6(2H)-one]
5 | 625 | N#Cc1cccc(S(=O)(=O)N2CCN3C(=O)C(Cc4cccc(C(F)(F)F)c4)C[C@H]3C2)c1 (stereo partly drawn) [Example 225, 3-{[(8aS)-6-oxo-7-[3-(trifluoromethyl)benzyl]hexahydropyrrolo[1,2-a]-pyrazin-2(1H)-yl]sulfonyl}benzonitrile]
6 | 2280 | O=S(=O)(c1ccc(C(F)(F)F)cc1)N1CCN2C[C@H](Oc3ccc(C(F)(F)F)cn3)C[C@H]2C1 [Example 226, (7R,8aS)-2-{[4-(trifluoromethyl)phenyl]sulfonyl}-7-{[5-(trifluoromethyl)-pyridin-2-yl]oxy}octahydropyrrolo[1,2-a]pyrazine]
7 | 2620 | N#Cc1cccc(S(=O)(=O)N2CCN3C[C@H](Oc4ccc(C(F)(F)F)cn4)C[C@H]3C2)c1 [Example 227, 3-{[(7R,8aS)-7-{[5-(trifluoromethyl)pyridin-2-yl]oxy}hexahydropyrrolo[1,2-a]pyrazin-2(1H)-yl]sulfonyl}benzonitrile]
8 | 654 | O=S(=O)(c1ccc(C(F)(F)F)cc1)N1CCN2C[C@H](Oc3ccc(C(F)(F)F)nc3)C[C@H]2C1 [Example 228, (7R,8aS)-2-{[4-(trifluoromethyl)phenyl]sulfonyl}-7-{[6-(trifluoromethyl)-pyridin-3-yl]oxy}octahydropyrrolo[1,2-a]pyrazine]
9 | 4430 | N#Cc1cccc(S(=O)(=O)N2CCN3C[C@H](Oc4ccc(C(F)(F)F)nc4)C[C@H]3C2)c1 [Example 229, 3-{[(7R,8aS)-7-{[6-(trifluoromethyl)pyridin-3-yl]oxy}hexahydropyrrolo[1,2-a]pyrazin-2(1H)-yl]sulfonyl}benzonitrile]
10 | 629 | O=S(=O)(c1cccc(C(F)(F)F)c1)N1CCN2C[C@H](Oc3cccc(C(F)(F)F)n3)C[C@H]2C1 [Example 230, (7R,8aS)-2-{[3-(trifluoromethyl)phenyl]sulfonyl}-7-{[6-(trifluoromethyl)-pyridin-2-yl]oxy}octahydropyrrolo[1,2-a]pyrazine]
11 | 383 | O=S(=O)(c1cccc(C(F)(F)F)c1)N1CCN2C[C@H](Oc3cncc(C(F)(F)F)c3)C[C@H]2C1 [Example 231, (7R,8aS)-2-{[3-(trifluoromethyl)phenyl]sulfonyl}-7-{[5-(trifluoromethyl)-pyridin-3-yl]oxy}octahydropyrrolo[1,2-a]pyrazine]

Second part, the molecule before the results:

Row | Molecule | IC50 [nM]
12 | CC(C)c1cnc(O[C@@H]2C[C@H]3CN(S(=O)(=O)c4cccc(C(C)(C)C)n4)CCN3C2)cn1 [Example 203, (7R,8aS)-2-[(6-tert-butylpyridin-2-yl)sulfonyl]-7-[(5-isopropylpyrazin-2-yl)-oxy]octahydropyrrolo[1,2-a]pyrazine] | 130
13 | C=C(C)c1cnc(O[C@@H]2C[C@H]3CN(S(=O)(=O)c4cccc(C(F)(F)F)n4)CCN3C2)cn1 [Example 204, (7R,8aS)-7-{[5-(prop-1-en-2-yl)pyrazin-2-yl]oxy}-2-{[6-(trifluoromethyl)-pyridin-2-yl]sulfonyl}octahydropyrrolo[1,2-a]pyrazine] | 380
14 | CC(C)c1cnc(O[C@@H]2C[C@H]3CN(S(=O)(=O)c4cccc(C(F)(F)F)n4)CCN3C2)cn1 [Example 205, (7R,8aS)-7-[(5-isopropylpyrazin-2-yl)oxy]-2-{[6-(trifluoromethyl)pyridin-2-yl]sulfonyl}octahydropyrrolo[1,2-a]pyrazine] | 280
15 | CC1(c2cnc(O[C@@H]3C[C@H]4CN(S(=O)(=O)c5cccc(C(F)(F)F)c5)CCN4C3)cn2)CC1 [Example 206, (7R,8aS)-7-{[5-(1-methylcyclopropyl)pyrazin-2-yl]oxy}-2-{[3-(trifluoromethyl)phenyl]sulfonyl}octahydropyrrolo[1,2-a]pyrazine] | 1520
16 | O=C1C(Oc2cnc(C3CC3)cn2)CC2CN(S(=O)(=O)c3cccc(C(F)(F)F)c3)CCN12 (stereo not drawn) [Example 207, 7-[(5-cyclopropylpyrazin-2-yl)oxy]-2-{[3-(trifluoromethyl)phenyl]-sulfonyl}hexahydropyrrolo[1,2-a]pyrazin-6(2H)-one] | 880
17 | O=C1[C@@H](Oc2cnc(C3CC3)cn2)C[C@@H]2CN(S(=O)(=O)c3cccc(C(F)(F)F)c3)CCN12 [Example 208, (7S,8aR)-7-[(5-cyclopropylpyrazin-2-yl)oxy]-2-{[3-(trifluoromethyl)-phenyl]sulfonyl}hexahydropyrrolo[1,2-a]pyrazin-6(2H)-one] | 1560
18 | O=C1[C@@H](Oc2cnc(C3CC3)cn2)C[C@H]2CN(S(=O)(=O)c3cccc(C(F)(F)F)c3)CCN12 [Example 209, (7S,8aS)-7-[(5-cyclopropylpyrazin-2-yl)oxy]-2-{[3-(trifluoromethyl)-phenyl]sulfonyl}hexahydropyrrolo[1,2-a]pyrazin-6(2H)-one] | 610
19 | O=C1[C@H](Oc2cnc(C3CC3)cn2)C[C@@H]2CN(S(=O)(=O)c3cccc(C(F)(F)F)c3)CCN12 [Example 210, (7R,8aR)-7-[(5-cyclopropylpyrazin-2-yl)oxy]-2-{[3-(trifluoromethyl)-phenyl]sulfonyl}hexahydropyrrolo[1,2-a]pyrazin-6(2H)-one] | 1660
20 | O=C1[C@H](Oc2cnc(C3CC3)cn2)C[C@H]2CN(S(=O)(=O)c3cccc(C(F)(F)F)c3)CCN12 [Example 211, (7R,8aS)-7-[(5-cyclopropylpyrazin-2-yl)oxy]-2-{[3-(trifluoromethyl)-phenyl]sulfonyl}hexahydropyrrolo[1,2-a]pyrazin-6(2H)-one] | 1560
21 | O=C1C(Oc2cnc(C3CC3)cn2)CC2CN(S(=O)(=O)c3ccc(C(F)(F)F)cc3)CCN12 (stereo not drawn) [Example 212, 7-[(5-cyclopropylpyrazin-2-yl)oxy]-2-{[4-(trifluoromethyl)phenyl]-sulfonyl}hexahydropyrrolo[1,2-a]pyrazin-6(2H)-one] | 10700
22 | O=C1C(Cc2cccc(F)c2)C[C@H]2CN(S(=O)(=O)c3ccc(C(F)(F)F)cc3)CCN12 (stereo partly drawn) [Example 213, (8aS)-7-(3-fluorobenzyl)-2-{[4-(trifluoromethyl)phenyl]-sulfonyl}-hexahydropyrrolo[1,2-a]pyrazin-6(2H)-one] | 1220
23 | O=C1C(Cc2cccc(F)c2)C[C@H]2CN(S(=O)(=O)c3cccc(C(F)(F)F)c3)CCN12 (stereo partly drawn) [Example 214, (8aS)-7-(3-fluorobenzyl)-2-{[3-(trifluoromethyl)phenyl]sulfonyl}-hexahydropyrrolo[1,2-a]pyrazin-6(2H)-one] | 440
24 | O=C1[C@H](C(O)c2cccc(F)c2)C[C@H]2CN(S(=O)(=O)c3cccc(C(F)(F)F)c3)CCN12 (stereo partly drawn) [Example 215, (7S,8aS)-7-[(3-fluorophenyl)(hydroxy)methyl]-2-{[3-(trifluoromethyl)-phenyl]sulfonyl}hexahydropyrrolo[1,2-a]pyrazin-6(2H)-one] | 1110
25 | O=C1[C@@H](C(O)c2cccc(F)c2)C[C@H]2CN(S(=O)(=O)c3cccc(C(F)(F)F)c3)CCN12 (stereo partly drawn) [Example 216, (7R,8aS)-7-[(3-fluorophenyl)(hydroxy)methyl]-2-{[3-(trifluoromethyl)-phenyl]sulfonyl}hexahydropyrrolo[1,2-a]pyrazin-6(2H)-one] | 1660
26 | O=C1C(Oc2ccc(C(F)(F)F)cn2)CC2CN(S(=O)(=O)c3cccc(C(F)(F)F)c3)CCN12 (stereo not drawn) [Example 217, 2-{[3-(trifluoromethyl)phenyl]sulfonyl}-7-{[5-(trifluoromethyl)pyridin-2-yl]-oxy}hexahydropyrrolo[1,2-a]pyrazin-6(211)-one] | 780
27 | O=S(=O)(Cc1cccc(C(F)(F)F)c1)N1CCN2C[C@H](Oc3cnc(C4CC4)cn3)C[C@H]2C1 [Example 218, (7R,8aS)-7-[(5-cyclopropylpyrazin-2-yl)oxy]-2-{[3-(trifluoromethyl)-benzyl]sulfonyl}octahydropyrrolo[1,2-a]pyrazine] | 16000
28 | O=S(=O)(CCCC(F)(F)F)N1CCN2C[C@H](Oc3cnc(C4CC4)cn3)C[C@H]2C1 [Example 219, (7R,8aS)-7-[(5-cyclopropylpyrazin-2-yl)oxy]-2-[(4,4,4-trifluorobutyl)-sulfonyl]octahydropyrrolo[1,2-a]pyrazine] | > 30000
29 | O=C1CN(S(=O)(=O)c2cccc(C(F)(F)F)c2)C[C@@H]2C[C@@H](Oc3cnc(C4CC4)cn3)CN12 [Example 220, (7R,8aS)-7-[(5-cyclopropylpyrazin-2-yl)oxy]-2-{[3-(trifluoromethyl)-phenyl]sulfonyl}hexahydropyrrolo[1,2-a]pyrazin-4(1H)-one] | 660
30 | (7R,8aS)-2-{[4-chloro-3-(trifluoromethyl)phenyl]sulfonyl}-7-ethoxy-octahydropyrrolo[1,2-a]pyrazine [Example 188] | > 30000
